In the supplement of paper PMC5655136:
Values come from read counts of a selection and are noisy.

Tested on: NB7
Assay: fold depletion of shRNA, plasmid library share / infected cells without Dox share (9 days) (ratio); higher = more depleted after infection (more toxic, leaky expression from a Tet-inducible vector; NB7 is a neuroblastoma line without caspase-8)
Details: shRNA pool: CD95L ORF + CD95L 3'UTR + Venus libraries
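Also: shRNA barcodes quantified by deep sequencing of PCR amplicons from cellular DNA, counts expressed as percent of each subpool, ratio averaged over two biological duplicates.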

Sequence	fold depletion of shRNA
CACAGGGTTCAAAATGTCTGT	2.15
CACAGTTCTTCCCTGTCCAAC	4.19
CACATGAAGCAGCACGACTTC	1.57
CACATGGTCCTGCTGGAGTTC	1.37
CACCACCACCACCGCCACCGC	0.793
CACCACCGCCACCGCCACCAC	0.619
CACCACCGGCAAGCTGCCCGT	0.981
CACCACTACCACCTCCGCCGC	2.11
CACCACTGCCTCCACTACCGC	2.66
CACCATCTTCTTCAAGGACGA	3.56
CACCCCAGTCCACCCCCTGAA	0.472
CACCCCCATCGGCGACGGCCC	0.842
CACCCCCTGAAAAAAAGGAGC	1.3
CACCCCTGAAGAAGAGAGGGA	2.27
CACCCTCGTGACCACCCTGGG	1.2
CACCCTGGTGAACCGCATCGA	1.41
CACCGAGAATGTTGTATTCAG	3.45
CACCGCCACCACTACCACCTC	1.37
CACCGCCACCGCCACCACTAC	0.471
CACCGCCGACAAGCAGAAGAA	0.934
CACCGGCAAGCTGCCCGTGCC	1.34
CACCGGGGTGGTGCCCATCCT	1.08
CACCTAATGTTTATGAGCCAG	1.77
CACCTACAGAAGGAGCTGGCA	6.35
CACCTACGGCAAGCTGACCCT	0.603
CACCTATGGAATTGTCCTGCT	1.63
CACCTCTCAAGGTGGGCCTTG	0.921

Sequence	fold depletion of shRNA
CACCTTTTAACTCACCTCTCA	0.557
CACGACTTCTTCAAGTCCGCC	0.811
CACTACCACCTCCGCCGCCGC	8.79
CACTACCAGCAGAACACCCCC	2
CACTACCTGAGCTACCAGTCC	1.82
CACTACTGGGCAGATGTGGGC	0.397
CACTCATCTTAGTGCCTGAGA	1.25
CACTCTCGGCATGGACGAGCT	1.8
CACTGCCTCCACTACCGCTGC	5.46
CACTGGCAGCATCTTCACTTC	1.01
CACTTCTAAATGCATATCCTG	1.38
CACTTTGGGATTCTTTCCATT	1.06
CAGAACACCCCCATCGGCGAC	2.34
CAGAACTCCGAGAGTCTACCA	1.38
CAGAAGAACGGCATCAAGGCC	2.85
CAGAAGGAGCTGGCAGAACTC	0.14
CAGACAAATGGAGGAATATGA	0.793
CAGACGTTTTTCGGCTTATAT	0.822
CAGATAAGCAAGAGAGATGTT	1.89
CAGATACATGGTTGTGACCTG	1.13
CAGATGCACACAGCATCATCT	0.931
CAGATTGAAAAGGACACCTTT	0.749
CAGCACGACTTCTTCAAGTCC	2.74
CAGCAGAACACCCCCATCGGC	0.777
CAGCAGCCCTTCAATTACCCA	0.389
CAGCATCATCTTTGGAGAAGC	1.77
CAGCATCTTCACTTCTAAATG	0.368

Sequence	fold depletion of shRNA
CAGCCACAACGTCTATATCAC	2.91
CAGCCAGATGCACACAGCATC	5.47
CAGCCCTTCAATTACCCATAT	1.23
CAGCGTGTCCGGCGAGGGCGA	0.216
CAGCTACCAGGTGTTCTACAC	1.9
CAGCTACTAATGATGTTTTCC	0.625
CAGCTCGCCGACCACTACCAG	0.652
CAGCTCTCCCTGGGCCCCTCC	32.5
CAGCTCTTCCACCTACAGAAG	0.73
CAGGAGCGCACCATCTTCTTC	2.08
CAGGATCTGGTGATGATGGAG	1.57
CAGGCACCGAGAATGTTGTAT	0.561
CAGGTGTTCTACACTCATCTT	1.17
CAGTCCACCCCCTGAAAAAAA	3.82
CAGTCCGCCCTGAGCAAAGAC	1.31
CAGTGAGGGTCTTCTTACATG	0.589
CAGTGCAATTGTAGGGGTGTG	2.71
CAGTGCTGATCATTTATATGT	0.58
CAGTGCTTCGCCCGCTACCCC	1.04
CAGTGTTCAATCTTACCAGTG	2.31
CAGTTCTTCCCTGTCCAACCT	2.11
CATAATAAGCTAAAGAGGCTG	1.67
CATATCCCCAGATCTACTGGG	1.92
CATATCCTGAGCCATCGGTGA	1.46
CATATTAGGAAAATATGGGTT	0.897

Same assay, conditions: shRNA pool: CD95 ORF + CD95 3'UTR + Venus libraries

Sequence	fold depletion of shRNA
CACAGTCAATGGGGATGAACC	1.04
CACAGTTTATTGGTGTCATAT	0.896
CACATAGAAAACATTAAATTA	0.786
CACATGAAGCAGCACGACTTC	1.18
CACATGGTCCTGCTGGAGTTC	1.09
CACATTGATTAAAGATCTCAA	0.555
CACCAAAAAATACTTAATAGT	0.792
CACCAAAAGGCAAGACTGCCC	0.753
CACCAAATGTGAACATGGAAT	1.02
CACCAAGTGCAAAGAGGAAGG	0.735
CACCACCGGCAAGCTGCCCGT	1.12
CACCACTATTGCTGGAGTCAT	1.17
CACCAGCAACACCAAGTGCAA	2.57
CACCATCTTCTTCAAGGACGA	2.23
CACCCCCAAACATGGAAATAT	1.84
CACCCCCATCGGCGACGGCCC	1.09
CACCCCCGAAAATGTTCAATA	1.91
CACCCGGACCCAGAATACCAA	1.68
CACCCTCGTGACCACCCTGGG	1.1
CACCCTGGGCTACGGCCTGCA	1.45
CACCCTGGTGAACCGCATCGA	1.79
CACCGCCGACAAGCAGAAGAA	0.971
CACCGGCAAGCTGCCCGTGCC	0.592

Sequence	fold depletion of shRNA
CACCGGGGTGGTGCCCATCCT	1.18
CACCTAAAGAACTTCCATTTA	1.24
CACCTACGGCAAGCTGACCCT	0.462
CACCTCTCCATTTTTGCCTTG	2.33
CACGACTTCTTCAAGTCCGCC	1.17
CACTAAGTCAAGTTAAAGGCT	0.534
CACTAATTGTTTGGGTGAAGA	0.746
CACTACCAGCAGAACACCCCC	1.63
CACTACCTGAGCTACCAGTCC	2.77
CACTCACCAGCAACACCAAGT	1.47
CACTCTATGAATCAATAGAAG	1.22
CACTCTCGGCATGGACGAGCT	1.19
CACTGTGACCCTTGCACCAAA	2.63
CACTTTGCCTCTAAATTACCT	0.723
CAGAAAACATGCAGAAAGCAC	2.26
CAGAAAATTCAAACTTCAGAA	1.39
CAGAAAGCACAGAAAGGAAAA	0.754
CAGAAAGGAAAACCAAGGTTC	1.8
CAGAAAGTTCAACTGCTTCGT	1.78
CAGAAATGAAATCCAAAGCTT	1.62
CAGAACACCCCCATCGGCGAC	1.56
CAGAACAGAAAGTTCAACTGC	2.75
CAGAACTTGGAAGGCCTGCAT	7.69

Sequence	fold depletion of shRNA
CAGAAGAACGGCATCAAGGCC	0.682
CAGAAGATGTAGATTGTGTGA	1.11
CAGAATACCAAGTGCAGATGT	2.61
CAGAATTTAAATAAGGCTCTA	0.771
CAGACAAAGCCCATTTTTCTT	0.767
CAGACTATCATCCTCAAGGAC	0.9
CAGACTGCGTGCCCTGCCAAG	0.885
CAGAGAAAATTCAGACTATCA	0.812
CAGAGAAAGTAGCTTTGTGAC	2.42
CAGATCTAACTTGGGGTGGCT	2.47
CAGATGTAAACCAAACTTTTT	0.582
CAGCACGACTTCTTCAAGTCC	1.51
CAGCAGAACACCCCCATCGGC	1.27
CAGCAGAACAGAAAGTTCAAC	0.827
CAGCGTGTCCGGCGAGGGCGA	0.328
CAGCTCGCCGACCACTACCAG	0.804
CAGCTTATACATAGCAATGGT	1.62
CAGGAGAGTATTACTAGAGCT	0.859
CAGGAGCGCACCATCTTCTTC	1.17
CAGGCTAACCCCACTCTATGA	1.24
CAGGTGAAAGGAAAGCTAGGG	0.908
CAGTCAATGGGGATGAACCAG	3.14
CAGTCCGCCCTGAGCAAAGAC	0.59

Sequence	fold depletion of shRNA
CAGTGCTTCGCCCGCTACCCC	0.661
CAGTGGCAATAAATTTATCTG	0.812
CAGTGTATGTTAGTACAAATG	0.866
CAGTTACTGAACAGGCAGGCC	1.48
CAGTTCTGAGTATATGCAATT	1.36
CAGTTGAGACTCAGAACTTGG	0.502
CAGTTTATTGGTGTCATATTA	1.29
CATAAGCCCTGTCCTCCAGGT	0.831
CATACCCCCAAGTTTCTAAGA	0.855
CATAGAAAACATTAAATTATA	1.03
CATAGCAATGGTAAAATCATC	0.785
CATATGATTCTGTAGTATGAA	0.581
CATATTATACAATATTTCAAT	0.837
CATATTTATGTAAAGTATATG	0.888
CATATTTCTAAACTTTGTTTA	0.715
CATATTTGTAGATTTTTAATA	1.26
CATCAAAAGCATTTTGAGCAG	1.68
CATCAACTCCAAGGGATTGGA	0.621
CATCAACTTCATGGAAAGAAA	0.517
CATCAAGAGTAAATGCAGTGG	0.582
CATCAAGGAATGCACACTCAC	4.59
